Measurements: the BET-seq Pho4 binding data (Le et al. 2018)
Some of the results follow. Values were computed here from the reads of four pooled replicates and scatter widely.

target: T1, Pho4 (S. cerevisiae) (UniProt P07270); test: relative binding free energy (BET-seq); higher = weaker binding; conditions: reference: library average
T1 sequence: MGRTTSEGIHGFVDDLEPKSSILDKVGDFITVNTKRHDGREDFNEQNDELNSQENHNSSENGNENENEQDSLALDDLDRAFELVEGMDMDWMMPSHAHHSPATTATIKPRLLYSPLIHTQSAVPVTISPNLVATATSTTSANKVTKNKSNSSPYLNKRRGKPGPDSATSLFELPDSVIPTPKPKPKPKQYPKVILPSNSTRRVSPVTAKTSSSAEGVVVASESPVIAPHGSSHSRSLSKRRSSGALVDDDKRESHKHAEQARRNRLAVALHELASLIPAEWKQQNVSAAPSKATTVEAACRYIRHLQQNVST

Sequence	relative binding free energy
GTTGACACGTGGGAGA	-0.1 kcal/mol
TGGGGCACGTGGTATC	-0.14 kcal/mol
CTGGGCACGTGGTGAT	-0.14 kcal/mol
TCGGGCACGTGTATCG	-0.02 kcal/mol
TAGATCACGTGTATTG	0.04 kcal/mol
TCTACCACGTGGGTTG	-0.11 kcal/mol
AATTTCACGTGAGCGG	0.26 kcal/mol
GCGGGCACGTGGGTCC	-0.02 kcal/mol
GGTCTCACGTGGTGGG	0.22 kcal/mol
GTTGACACGTGATCGG	0.15 kcal/mol
GAAAGCACGTGGAGGT	-0.18 kcal/mol
TGTAACACGTGTTGCT	0.04 kcal/mol
TCTGTCACGTGGTTTG	-0.01 kcal/mol
TTGTGCACGTGGCTGA	-0.02 kcal/mol
AGTGTCACGTGTATGC	0.08 kcal/mol
AAATACACGTGTTGTG	-0.01 kcal/mol
TCTGGCACGTGTGTTG	-0.1 kcal/mol
CGAGGCACGTGTGGAG	-0.02 kcal/mol
GCGGTCACGTGTAGCG	0.31 kcal/mol
GTTGGCACGTGTGAAA	0 kcal/mol
ACTGACACGTGTGTGT	0.03 kcal/mol
GGTTTCACGTGGTATG	0.26 kcal/mol
GCCTTCACGTGGTTGG	0.18 kcal/mol

Sequence	relative binding free energy
CGTGTCACGTGGGCGA	-0.08 kcal/mol
TGGGCCACGTGGGGTT	-0.19 kcal/mol
TTTCGCACGTGGGTTG	-0.12 kcal/mol
GTGCGCACGTGCTTGG	-0.01 kcal/mol
TCCGTCACGTGTTGTT	0.21 kcal/mol
TTGTTCACGTGGAAGG	0.35 kcal/mol
GGTTGCACGTGATGCA	0.1 kcal/mol
GGATTCACGTGAAGAT	0.36 kcal/mol
TTAGGCACGTGTGTTT	-0.09 kcal/mol
GTAGGCACGTGGTTAC	-0.18 kcal/mol
TACGGCACGTGTTCGT	0.16 kcal/mol
TGTAGCACGTGGGACA	-0.25 kcal/mol
GGAGTCACGTGACTTT	0.37 kcal/mol
TGGGACACGTGTATCT	-0.02 kcal/mol
TTAGTCACGTGATTTG	0.27 kcal/mol
TGTCGCACGTGTTTAA	-0.12 kcal/mol
TGTTTCACGTGGAAAG	0.29 kcal/mol
TGCATCACGTGATTTA	0.24 kcal/mol
GGGTACACGTGGGTGG	-0.04 kcal/mol
TATTTCACGTGCAAGT	0.28 kcal/mol
GGCATCACGTGTGGTA	0.15 kcal/mol
TGGCGCACGTGAGTAA	0.15 kcal/mol
GGTTCCACGTGAGGAG	0.37 kcal/mol

Sequence	relative binding free energy
TTATGCACGTGTTCTT	-0.15 kcal/mol
ATTAACACGTGTTTTA	-0.12 kcal/mol
TAGAACACGTGAAAGG	0.45 kcal/mol
CGTATCACGTGTAATG	0.33 kcal/mol
CGTTTCACGTGCGGTG	0.27 kcal/mol
CGGTTCACGTGTGCGC	0.35 kcal/mol
TTATACACGTGTTTTC	-0.04 kcal/mol
TTTCGCACGTGGACGG	0.04 kcal/mol
AGGTACACGTGGGTGA	-0.08 kcal/mol
GGGGCCACGTGTTGAG	0 kcal/mol
GGCGACACGTGGGGTG	-0.04 kcal/mol
TTTGGCACGTGCATAG	-0.18 kcal/mol
TAAAGCACGTGGTTTG	-0.1 kcal/mol
TTTATCACGTGTACAT	-0.03 kcal/mol
GTTAGCACGTGAGAGC	0.24 kcal/mol
TTAGGCACGTGGGAGT	-0.11 kcal/mol
ATCTACACGTGGAGGT	0.11 kcal/mol
GGCTGCACGTGTGGAG	0.15 kcal/mol
TGTTACACGTGCGATT	-0.02 kcal/mol
GGCGACACGTGTGGAT	0.26 kcal/mol
TGTATCACGTGGTCCG	0.13 kcal/mol
TGTGCCACGTGAGTGC	0.1 kcal/mol
AGTTACACGTGGTTAG	0.1 kcal/mol

Sequence	relative binding free energy
ACGTGCACGTGGGTCA	-0.21 kcal/mol
GGGTCCACGTGGCTGT	0.07 kcal/mol
TGGCTCACGTGTGTAA	0.21 kcal/mol
AGTGTCACGTGGGGAA	-0.06 kcal/mol
ATGGGCACGTGCTATG	-0.12 kcal/mol
TTACTCACGTGTAGTA	0.26 kcal/mol
ATCAGCACGTGGGTTG	-0.26 kcal/mol
TGTAACACGTGGGAGA	-0.06 kcal/mol
GTGCGCACGTGTGGTC	0.12 kcal/mol
TTAACCACGTGTTTGT	-0.11 kcal/mol
TGATTCACGTGCGGAA	0.26 kcal/mol
GGCTACACGTGAGGTT	0.28 kcal/mol
TTAAACACGTGGATGG	0.15 kcal/mol
ATGAACACGTGTAGGT	0.05 kcal/mol
TTTAACACGTGGTTGT	-0.06 kcal/mol
TTGATCACGTGAGGAA	0.33 kcal/mol
ATGGACACGTGCTTAG	0.03 kcal/mol
TTATGCACGTGGATTG	-0.09 kcal/mol
TTTGCCACGTGAATGT	0.2 kcal/mol
TGGCGCACGTGTTAGT	0 kcal/mol
TTGAGCACGTGGGCGT	-0.26 kcal/mol
GGGTCCACGTGTGTAA	-0.03 kcal/mol
TTTCTCACGTGGTTTC	0.31 kcal/mol

Sequence	relative binding free energy
TTGGGCACGTGTCAGA	-0.04 kcal/mol
AGCGGCACGTGATTTG	0.05 kcal/mol
CTGTCCACGTGGTGGT	-0.04 kcal/mol
TGATGCACGTGGGCAA	-0.06 kcal/mol
CGTGGCACGTGACTTG	-0.03 kcal/mol
TGTGACACGTGAGGTT	0.19 kcal/mol
ATTGTCACGTGTAAAT	0.24 kcal/mol
CAGTTCACGTGATGGG	0.35 kcal/mol
TGGGGCACGTGTGAGA	-0.04 kcal/mol
AATGTCACGTGGGCTA	-0.14 kcal/mol
AGGAACACGTGGTGGT	0 kcal/mol
AGTCGCACGTGGTGAT	-0.18 kcal/mol
TCTGCCACGTGGCGGG	-0.13 kcal/mol
TTAGTCACGTGTTTGT	0.13 kcal/mol
TTGTTCACGTGCTTAT	0.16 kcal/mol
ATTGGCACGTGTTAAA	-0.1 kcal/mol
GGACGCACGTGGGGAT	-0.16 kcal/mol
CGTGGCACGTGTACGG	-0.03 kcal/mol
GGAACCACGTGTGTAT	0.14 kcal/mol
GTTTACACGTGAAAAG	0.48 kcal/mol
TGATTCACGTGGGACG	0.2 kcal/mol
GATTTCACGTGTTGAT	0.3 kcal/mol
TTATTCACGTGTGTTC	0.33 kcal/mol
